Among the data in PubChem BioAssay AID493035 (The Scripps Research Institute Molecular Screening Center, 2011) are inhibition values, retold here.

Several values for one entry are separate records, joined by “and”; a condition that tells them apart may be missing. Equal entries are not always repeated. Among all 2,000 compounds or so, about 45 (2%) were called active.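 The calls were made as follows: active = inhibition above the mean of all tested compounds plus 3 SD (cut at about 49% in these data); inactive = the rest.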 The list shows a part of the results.

The assay has as its target Perilipin-5 (Homo sapiens) + 1-acylglycerol-3-phosphate O-acyltransferase ABHD5 (Homo sapiens) (UniProt Q00G26+Q8WTS1). Nature of the assay: blockers of ABHD5 binding to perilipin-5 – cell lysate, split luciferase complementation, luminescence, NIH validation set, pilot screen (AID 493035).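 Also: 0% = DMSO only wells while the 100% control is not stated.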 The settings on record: split G. princeps luciferase complementation, lysates, 4 h; at 7.9 µM, hits give high values.
Chain of UniProt Q00G26 (Q00G26 whole entry, looked up): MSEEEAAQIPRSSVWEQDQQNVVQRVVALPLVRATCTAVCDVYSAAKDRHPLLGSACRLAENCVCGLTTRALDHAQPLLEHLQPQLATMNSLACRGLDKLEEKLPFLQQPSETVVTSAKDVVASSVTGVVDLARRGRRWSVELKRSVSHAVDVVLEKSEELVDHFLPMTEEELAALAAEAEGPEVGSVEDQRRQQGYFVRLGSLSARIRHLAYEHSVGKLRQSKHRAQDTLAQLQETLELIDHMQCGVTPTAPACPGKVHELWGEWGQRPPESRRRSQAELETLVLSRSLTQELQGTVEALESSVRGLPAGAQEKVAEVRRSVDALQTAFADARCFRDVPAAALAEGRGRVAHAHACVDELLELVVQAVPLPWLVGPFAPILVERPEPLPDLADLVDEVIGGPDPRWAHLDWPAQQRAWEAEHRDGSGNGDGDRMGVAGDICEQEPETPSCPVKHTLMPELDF
Chain of UniProt Q00G26 (Q8WTS1 whole entry, looked up): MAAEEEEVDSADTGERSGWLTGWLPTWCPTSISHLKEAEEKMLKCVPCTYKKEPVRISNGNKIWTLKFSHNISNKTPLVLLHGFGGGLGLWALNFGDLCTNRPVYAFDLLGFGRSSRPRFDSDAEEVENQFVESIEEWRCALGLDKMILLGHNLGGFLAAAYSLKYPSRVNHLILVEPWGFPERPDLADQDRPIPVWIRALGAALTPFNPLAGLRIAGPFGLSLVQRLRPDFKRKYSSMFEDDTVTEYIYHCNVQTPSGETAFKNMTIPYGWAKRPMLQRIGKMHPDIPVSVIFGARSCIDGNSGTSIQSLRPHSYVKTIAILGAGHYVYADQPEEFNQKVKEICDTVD
The term inhibition denotes the drop in the measured response relative to a control, in per cent. In the case of `COc1ccc(-c2onc(C)c2-c2ccc(C(=O)OC(C)C)o2)c(O)c1`, the inhibition was inactive: -9.38%.

Regarding `O=C(Oc1cccccc1=O)c1ccccc1`, the inhibition is inactive: -14.5%.

Turning to `CCN1/C(=C/C=C/C=C/c2sc3ccccc3[n+]2CC)Sc2ccccc21`, the inhibition is active: 70.5%.

Consider `O=C1C(=O)N2C(=C1C(=O)N1CCCCCC1)c1ccccc1CC21CCCC1`, for which the inhibition is inactive: 0.84%.

For the compound `O=C(CN1C(=O)c2ccccc2C1=O)Nc1cccc([N+](=O)[O-])c1`, the inhibition is inactive: -10.8%.

Consider `O=c1[nH]cnc2c1ncn2[C@@H]1O[C@H](CO)[C@@H](O)[C@H]1O`, for which the inhibition was inactive: 1.49%.

For the compound `CCc1nc2ccccc2n1Cc1ccc(OC)c(OC)c1`, the inhibition is inactive: 0.83%.

Regarding `O=C(O)C[C@@H](O)C(=O)O`, the inhibition is inactive: -4.2%.

Take `CC(=O)Oc1ccc2occ(/C=N/c3cc(=O)[nH]c(=S)[nH]3)c(=O)c2c1`: the inhibition is inactive: 3.16%.

Take `O=c1ccc2ccccc2o1`: the inhibition was inactive: -11%.

On to `CC1(C)CC(CNCCC(c2ccc(F)cc2)c2ccco2)CCO1` (configuration not stated), for which the inhibition is inactive: -10.4%.

For `CN(C)CCCN1c2ccccc2Sc2ccc(Cl)cc21`, the inhibition was inactive: -3.85% and inactive: -9.65%.

As for `COc1ccc(C(=O)Nc2cccc3cccnc23)cc1OC`, the inhibition was inactive: 3.39%.

For the compound `CCOc1cc2c(cc1OCC)C(c1ccccc1)N(c1ccc(C(=O)O)cc1)C(=O)C2` (configuration not stated), the inhibition is inactive: 5.15%.

With `O=C(CCN1CCC(c2ccccc2)C1)c1ccc2c(c1)OCCO2` (configuration not stated), the inhibition was inactive: 17.6%.

As to `c1ccc(Cn2nnc3cnccc32)cc1`, the inhibition was inactive: 0.38%.

On to `CCOc1ccc(C(=O)/C=C/c2cc(OC)c(OC)c(OC)c2)cc1`, for which the inhibition is inactive: 33.3%.

Consider `COc1ccc(NC(=O)CC2C(=O)N(C)C(=S)N2Cc2ccncc2)cc1` (configuration not stated), for which the inhibition was inactive: -3.37%.

Regarding `Nc1ccn([C@@H]2O[C@H](CO)[C@@H](O)[C@@H]2O)c(=O)n1`, the inhibition was inactive: -0.98%.

For `NC(N)=N/N=C/c1cccc(Cl)c1Cl`, the inhibition is inactive: -13.9%.

With `COc1cc2c(cc1OC)-c1cc(NC3CCCCCC3)nc(=O)n1CC2`, the inhibition is inactive: 8.14%.

For `COc1ccc(CCN=CC2=C(O)CC(C)(C)CC2=O)cc1`, the inhibition was inactive: -10.3%.

Take `C=CCNC(=O)c1ccc(-c2cccc([N+](=O)[O-])c2)o1`: the inhibition is inactive: -13.6%.

Regarding `CC(C)CCC1(CCNC(C)c2cccs2)CCOC(C)(C)C1` (configuration not stated), the inhibition was inactive: -7.41%.

Turning to `COc1ccc(CC(=O)c2c(O)cc(O)cc2O)cc1OC`, the inhibition was inactive: -3.19%.

Turning to `C[C@@H]1C[C@H]2[C@@H]3C[C@H](F)C4=CC(=O)C=C[C@]4(C)[C@@]3(F)[C@@H](O)C[C@]2(C)[C@@]1(O)C(=O)COC(=O)C(C)(C)C`, the inhibition is inactive: -1.96%.

As for `O=C1NC(=O)C(c2ccccc2)(c2ccccc2)N1`, the inhibition is inactive: -12.7% and inactive: 2.95%.

On to `Cc1ccccc1-c1nn(-c2ccc(F)cc2F)cc1CNCCN(C)C`, for which the inhibition was inactive: -6.8%.

In the case of `O=C1NCC2=C1C(c1ccccc1)Nc1ccccc1N2` (configuration not stated), the inhibition was inactive: 13.5%.

Consider `Cc1ccc2c(c1)C(O)(C1COC(C)(C)CC1=O)C(=O)N2C` (configuration not stated), for which the inhibition is inactive: -8.67%.

In the case of `c1ccc(CNc2ncnc3nc[nH]c23)cc1`, the inhibition is inactive: -5.25%.

For the compound `O=c1nc2cccc3c2=c(/c1=C(\O)c1ccccc1)c1ccccc1c3=O`, the inhibition is inactive: 4.68%.

Take `CC(C)Cc1nc(NCCN2CCOCC2)c(C#N)c2c1COC(C)(C)C2`: the inhibition was inactive: -6.7%.

Consider `Fc1ccc(-c2cc(-c3ccccc3)nc(-n3cccn3)n2)cc1`, for which the inhibition is inactive: 2.83%.

For `COc1ccc(Cc2noc(CN(C)CC3(N4CCOCC4)CCCCC3)n2)cc1OC`, the inhibition was inactive: 1.62%.

Consider `Cc1cccc(-c2ncc(CN3CCN(CC(C)C)C(CCO)C3)cn2)c1` (configuration not stated), for which the inhibition is inactive: -0.55%.

Take `COC1CCN(Cc2cn(Cc3ccccc3)nc2-c2cc3ccccc3o2)CC1`: the inhibition was inactive: -13.2%.

As to `COc1ccc(C2C3=C(OC(C)=O)c4ccccc4C3=Nc3c2c(=O)n(C)c(=O)n3C)cc1` (configuration not stated), the inhibition was inactive: -6.71%.

For `COc1ccc2[nH]c(=O)c(CNC3CCCCC3)cc2c1`, the inhibition was inactive: 0.21%.

In the case of `COc1cc2c(cc1OC)C(Cc1ccc(O)cc1)N(C)CC2` (configuration not stated), the inhibition was inactive: 3.62%.

Turning to `COc1ccccc1C(=O)c1cc2ccc(O)cc2oc1=O`, the inhibition was inactive: 1.5%.

As for `O=C(c1ccc(O)cc1)c1ccc(O)cc1O`, the inhibition is inactive: -3.19%.

`Cc1ccc(S(=O)(=O)Oc2ccccc2/C=N/N=C(N)N)cc1`: the inhibition was inactive: -1.13%.

Turning to `CCc1cc2c(=O)c(-c3ccc(F)cc3)c(C)oc2cc1OCC(=O)O`, the inhibition was inactive: 8.3%.

As to `O=C(O)CP(=O)(O)O`, the inhibition is inactive: -2.45%.

As for `CNc1nc(N(C)C)nc(N(C)C)n1`, the inhibition was inactive: -0.61%.

In the case of `COc1ccc(C(=O)/C=C/c2cc(C(=O)O)cc3c2OCOC3)c(O)c1`, the inhibition is active: 70.3%.

For `CN1CCCC(OC(=O)c2ccc3c(c2)OCCO3)C1` (configuration not stated), the inhibition is inactive: 1.35%.

With `COC(=O)c1ccccc1NC(=O)c1ccc(COc2ccc3c(c2)CCC3)cc1`, the inhibition was inactive: -8.51%.

For the compound `Cc1c2c(nc3c(C)cccc13)OC(C)C2` (configuration not stated), the inhibition is inactive: 0.14%.

For the compound `CN(C)C(=O)Oc1ccc[n+](C)c1`, the inhibition is inactive: -1.84%.

On to `CC(=O)CCc1c(C)c2cccc(C)c2[nH]c1=O`, for which the inhibition is inactive: -5.36%.

Turning to `COc1ccccc1OCC(O)COC(N)=O` (configuration not stated), the inhibition is inactive: 1.61%.

`CC(C)C[C@H]1C(=O)N2CCC[C@H]2[C@]2(O)O[C@](NC(=O)[C@@H]3C=C4c5cccc6[nH]c(Br)c(c56)CC4N(C)C3)(C(C)C)C(=O)N12` (some centres not stated): the inhibition was inactive: 12.3%.

For the compound `CC(=O)OCC(=O)[C@@]1(OC(C)=O)[C@@H](C)C[C@H]2[C@@H]3C[C@H](F)C4=CC(=O)C=C[C@]4(C)[C@@]3(F)[C@@H](O)C[C@@]21C`, the inhibition is inactive: -7.9%.

With `CC(N=C(NC#N)Nc1ccncc1)C(C)(C)C` (configuration not stated), the inhibition is inactive: -5.72%.

For the compound `COc1ccc(CN(C)CCc2ccccn2)cc1OC`, the inhibition is inactive: -9.76%.

As for `S=C(NCc1ccccc1)NCc1cccc(CNC(=S)NCc2ccccc2)c1`, the inhibition is inactive: 10.2%.

For `Oc1[nH]c2ccccc2c1N=Nc1ccccc1`, the inhibition is inactive: 1.06%.

Turning to `C=CCn1c(N2CCCCCC2)nc2c1c(=O)n(C)c(=O)n2C`, the inhibition was inactive: 0.31%.

Take `CCOC(=O)Cn1c(C)cc(=O)c2ccccc21`: the inhibition is inactive: 8.9%.

As to `CC(=O)OCC(=O)[C@H]1CC[C@H]2[C@@H]3CCC4=CC(=O)CC[C@]4(C)[C@H]3CC[C@]12C`, the inhibition is inactive: -0.63%.

For the compound `COc1cc2nc(-c3ccccc3)nc(N3CCCC3)c2cc1OC`, the inhibition was inactive: 2.89%.

As for `C#C[C@]1(O)CC[C@H]2[C@@H]3CCC4=CC(=O)CC[C@@H]4[C@H]3CC[C@@]21CC`, the inhibition was inactive: -7.35%.

For `O=c1[nH]c(Cc2ccccc2)nc2c1oc1ccccc12`, the inhibition was inactive: -8.6%.

Regarding `O=C(NO)c1ccccc1O`, the inhibition is inactive: -11.8%.

With `Cc1cccc(NC(=O)c2cc3ccccc3o2)c1`, the inhibition was inactive: -6.38%.

`c1ccc(CN(CC2=NCCN2)c2ccccc2)cc1`: the inhibition was inactive: -2.78% and inactive: -2.7%.

On to `O=C(NCCN1CCN(c2ccccc2)CC1)c1cccc(Br)c1`, for which the inhibition was inactive: -10.2%.

Regarding `CC(C)CN1CCN(Cc2ccc3ncccc3c2)CC1CCO` (configuration not stated), the inhibition was inactive: -10.9%.

For the compound `CCOc1ccc(CCn2c(-c3ccco3)nc3ccccc3c2=O)cc1OCC`, the inhibition is inactive: 5.88%.

`COc1ccc(/C=C2\CCn3c2nc2cc(C(=O)O)ccc2c3=O)cc1OC`: the inhibition is inactive: -3.54%.

With `COc1ccc(O)c(N)c1`, the inhibition was inactive: 33.6%.

Regarding `COc1cc2c3c(c1)C(C)CC(C)(C)N3C(=O)C2=O` (configuration not stated), the inhibition was inactive: 3.84%.

With `S=C(c1ccc2c(c1)OCO2)N1CCCCC1`, the inhibition is inactive: 7.46%.

On to `COc1ccc(C(=O)NCc2cccnc2)cc1`, for which the inhibition was inactive: -0.13%.

In the case of `CC(=O)Nc1ccccc1O`, the inhibition is inactive: 1.71%.

Take `O=c1cc(Cn2ccnc2)c2cc3c(cc2o1)CCC3`: the inhibition is inactive: 7.19%.

`O=c1oc2c(CN3CCN(CCO)CC3)c(O)ccc2cc1-c1ccccn1`: the inhibition is inactive: 0.47%.

Consider `CCOC(=O)c1cnc2ccc(C(=O)OC)cc2c1Nc1ccc2c(c1)OCCO2`, for which the inhibition was inactive: 4.48%.

For `Cc1ccc2c(c1)C(O)(CC(=O)/C=C/C=C/c1ccccc1)C(=O)N2` (configuration not stated), the inhibition was inactive: 24.3%.

Take `COc1ccccc1OCC(=O)O`: the inhibition was inactive: -2.3%.

For `CCCCC/C=C\C[C@H](O)/C=C/c1cccc(C[C@H](O)CCCCO)n1`, the inhibition is active: 62.8%.

Turning to `COc1ccc(C2C3=C(CC(C)(C)CC3=O)N(C)C3=C2C(=O)CC(C)(C)C3)cc1`, the inhibition is inactive: -2.33%.

Consider `C#CCN(C)CCCOc1ccc(Cl)cc1Cl`, for which the inhibition is inactive: -7.85%.

Take `Cc1c(NC(=O)c2cccs2)cccc1[N+](=O)[O-]`: the inhibition was inactive: -6.81%.

On to `Cc1nc2cc3ccccc3cc2c(=O)[nH]1`, for which the inhibition was inactive: -4.91%.

In the case of `COc1cccc(CN2C(=O)N(C(C)C)C(N(O)C(=O)NC(C)C)C2(C)C)c1OC` (configuration not stated), the inhibition was inactive: 3.16%.

Consider `COc1ccc2c(c1)[nH]c1c(=O)n(Cc3ccccn3)cnc12`, for which the inhibition was inactive: -7.19%.

`Cn1c(=O)[nH]c(=O)c2c1nc(NCc1ccco1)n2CCCc1ccccc1`: the inhibition is inactive: -10%.

As to `CC1(C)CC(=O)c2cnc(NC(=O)C3CCCC3)nc2C1`, the inhibition was inactive: -3.56%.

Turning to `COc1ccc(-n2cc(CNCc3cccnc3)c(-c3cccc(F)c3)n2)cc1`, the inhibition was inactive: -9.1%.

Consider `Cn1c(=O)c2c(ncn2CCO)n(C)c1=O`, for which the inhibition was inactive: -4.57%.

For the compound `O=C1CC(c2ccc(F)cc2)Cc2nc(NCC3CCCO3)ncc21` (configuration not stated), the inhibition was inactive: -4.51%.

`CNCCCN1c2ccccc2CCc2ccccc21`: the inhibition was inactive: -21.2%.

For `C[n+]1ccccc1/C=N/O`, the inhibition was inactive: -9.84% and inactive: -11.4%.

With `COc1ccc(CN2CCCCC2C(=O)Nc2ccc(OC)c(OCC(C)C)c2)cc1OC` (configuration not stated), the inhibition was inactive: -8.58%.
